Source: article PMC12179603
These are yes or no findings as the source states them, for the method shown. In cells and extracts the contact can be indirect. Some binding calls cover weakened binding; strength is not graded here. Sequences can lack the tags named with a protein.

Protein sequences, listed by entry. Tags and fused reporters are not part of them.
UniProt Q93571: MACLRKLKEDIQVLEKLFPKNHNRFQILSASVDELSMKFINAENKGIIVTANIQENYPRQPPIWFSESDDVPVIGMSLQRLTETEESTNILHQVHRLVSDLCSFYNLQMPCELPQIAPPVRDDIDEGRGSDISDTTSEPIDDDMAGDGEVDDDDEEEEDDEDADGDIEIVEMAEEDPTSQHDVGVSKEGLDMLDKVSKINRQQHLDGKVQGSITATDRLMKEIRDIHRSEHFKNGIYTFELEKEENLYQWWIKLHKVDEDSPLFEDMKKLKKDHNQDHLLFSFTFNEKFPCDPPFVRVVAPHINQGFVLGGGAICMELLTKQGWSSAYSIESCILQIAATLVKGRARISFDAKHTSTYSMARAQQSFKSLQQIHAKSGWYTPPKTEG

What was measured:
FLAG-SIAH-1 (C. elegans) = biological target: T1, FLAG-SIAH-1 (C. elegans) (UniProt Q965X6); assay: co-IP; HEK293 cells transfected with Myc-UBC-25 and FLAG-SIAH-1; lysates 48 h after transfection; IP with anti-FLAG antibody or control IgG, blot with anti-Myc or anti-FLAG
T1 sequence: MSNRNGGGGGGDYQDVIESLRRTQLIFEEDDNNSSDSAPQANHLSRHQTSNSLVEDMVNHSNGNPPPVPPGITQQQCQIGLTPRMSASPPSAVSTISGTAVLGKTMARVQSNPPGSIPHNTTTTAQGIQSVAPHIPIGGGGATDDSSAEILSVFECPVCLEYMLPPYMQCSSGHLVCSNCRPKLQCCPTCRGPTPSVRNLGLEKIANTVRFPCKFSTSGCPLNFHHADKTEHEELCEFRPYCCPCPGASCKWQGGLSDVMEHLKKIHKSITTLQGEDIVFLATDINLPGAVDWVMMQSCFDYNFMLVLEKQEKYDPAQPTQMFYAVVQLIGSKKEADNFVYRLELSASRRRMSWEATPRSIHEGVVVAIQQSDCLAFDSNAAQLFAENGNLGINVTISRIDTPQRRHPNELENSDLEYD

[1] = biological target: T2, DVE-1::GFP(KI) (C. elegans (endogenous in worms)) (UniProt Q86MI0); assay: co-IP; C. elegans worm lysates (with or without 10 μM MG132 before lysis); GFP-Trap Agarose (anti-GFP nanobody) overnight at 4 °C; washes with 50 mM Tris-HCl pH 8.0, 300 mM NaCl; blot with anti-GFP and anti-SIAH-1
T2 sequence: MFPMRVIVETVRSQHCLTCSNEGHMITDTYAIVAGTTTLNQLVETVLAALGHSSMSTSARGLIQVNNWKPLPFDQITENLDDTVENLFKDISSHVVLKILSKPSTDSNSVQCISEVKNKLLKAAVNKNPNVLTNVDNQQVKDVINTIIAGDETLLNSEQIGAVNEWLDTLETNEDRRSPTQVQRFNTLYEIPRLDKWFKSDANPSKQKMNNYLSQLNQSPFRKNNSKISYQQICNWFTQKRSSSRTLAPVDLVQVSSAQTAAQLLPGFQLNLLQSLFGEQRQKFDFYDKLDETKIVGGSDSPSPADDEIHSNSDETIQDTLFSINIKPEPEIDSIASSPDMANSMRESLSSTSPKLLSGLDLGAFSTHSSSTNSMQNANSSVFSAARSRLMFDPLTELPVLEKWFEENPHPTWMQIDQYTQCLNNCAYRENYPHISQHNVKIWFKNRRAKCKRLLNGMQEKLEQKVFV

[2] = biological target: T3, GST-SIAH-1(192-419) (C. elegans) (UniProt Q965X6); assay: pull-down; 5 μg purified GST fusion on glutathione-Sepharose beads incubated with HEK293T lysates holding Myc-tagged DVE-1 constructs; washes with 50 mM Tris-HCl pH 7.6, 250 mM NaCl, 0.5% NP-40, 1 mM EDTA; blot with anti-Myc; only the target purified
T3 sequence: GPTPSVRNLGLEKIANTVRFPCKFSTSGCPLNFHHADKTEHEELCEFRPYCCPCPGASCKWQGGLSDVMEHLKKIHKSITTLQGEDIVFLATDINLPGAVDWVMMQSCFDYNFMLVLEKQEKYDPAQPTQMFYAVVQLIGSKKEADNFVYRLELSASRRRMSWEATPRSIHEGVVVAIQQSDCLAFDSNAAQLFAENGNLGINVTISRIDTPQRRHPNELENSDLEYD

With “Myc-UBC-25 (from UniProt Q93571 1-387) (enzyme)” the binding (FLAG-SIAH-1 (C. elegans)) was “binds”.

B1: SIAH-1 (full-length, endogenous) (enzyme, UniProt Q965X6 1-419)
chain: T1 sequence
With B1 the binding [1] was “binds”.

B2: Myc-DVE-1 (protein, UniProt Q86MI0 1-468)
chain: T2 sequence
B2 was tested, and the binding [2] was “binds”.

B3: Myc-DVE-1(179-468) (domain or fragment, UniProt Q86MI0 179-468)
chain: PTQVQRFNTLYEIPRLDKWFKSDANPSKQKMNNYLSQLNQSPFRKNNSKISYQQICNWFTQKRSSSRTLAPVDLVQVSSAQTAAQLLPGFQLNLLQSLFGEQRQKFDFYDKLDETKIVGGSDSPSPADDEIHSNSDETIQDTLFSINIKPEPEIDSIASSPDMANSMRESLSSTSPKLLSGLDLGAFSTHSSSTNSMQNANSSVFSAARSRLMFDPLTELPVLEKWFEENPHPTWMQIDQYTQCLNNCAYRENYPHISQHNVKIWFKNRRAKCKRLLNGMQEKLEQKVFV
With B3 the binding [2] was “binds”.

B4: Myc-DVE-1(1-178) (domain or fragment, UniProt Q86MI0 1-178)
chain: MFPMRVIVETVRSQHCLTCSNEGHMITDTYAIVAGTTTLNQLVETVLAALGHSSMSTSARGLIQVNNWKPLPFDQITENLDDTVENLFKDISSHVVLKILSKPSTDSNSVQCISEVKNKLLKAAVNKNPNVLTNVDNQQVKDVINTIIAGDETLLNSEQIGAVNEWLDTLETNEDRRS
For B4, the binding [2] was “no binding”.
